According to the RNAGym collection of RNA variant scans (doi:10.7554/elife.90254):
The source gives no read counts; variants with many changes may rest on few reads.

B1: LINE1-full (parent)
chain: UACGUAGGUGGUUUUCCCCUGAUAGUGCUAAGGGGGCCUGGAAGUUUGGACUGGGCAGAGCUCAACACAGCGUGGCAAAGUGGCUGUGGCUAGACUGCCUCUCUGGAUUCCUCGUCACUCAGCAGGGCAUCUCUGAGAGAAAUGCC

Variants of: B1
Assay: self-cleavage, relative activity (ratio to wild type); higher = more cleavage; in vitro, sequencing; the parent is a self-cleaving ribozyme

Row | Variant | self-cleavage
1 | A24G A43G U91A A138G | 0
2 | A24G G34A A50G C63U | 0.47
3 | U14A G32A A140U | 0.53
4 | G4A U73G A78G A136G | 0.91
5 | U73C A121G A136G | 0.71
6 | U20C U47A A65G U132G A140G | 0.14
7 | U46C A64G U73C U112A | 0.99
8 | U12C C28A C37A | 0.49
9 | U45C U47C G72U U115A | 1.05
10 | C18U U62A U102C C146U | 0.05
11 | U46C A67G A124G A138G A140G | 0
12 | A79G G89A A107G G126U | 0.02
13 | U39C U100C C113U U143C | 1.43
14 | U20A A94G U96C U119C U143A | 0
15 | C37G U46C U62C A94U C113U | 0.1
16 | G35A A67U U115C | 0.08
17 | G55A A67G C71U A77G U102G | 0.15
18 | U9A G32A A42G U85C A141G | 0.1
19 | U15A A24G G41A U134A A141G | 0.86
20 | U26C G70A U102C A136U | 0.18
21 | C71A A129G A138G | 0.28
22 | G10A U13C U91C A136G A142G | 0.81
23 | C16U C38A U45C A136G U143A | 0.69
24 | A22G G114C G135A | 0.9

Row | Variant | self-cleavage
25 | A77G U109A A117G | 1.84
26 | U47C U112C A142G | 1.2
27 | U13A C17U U26C A42G A43G U100C A140G | 0
28 | U15A A42U A77G | 1.71
29 | C16A A57U A67G A78G | 0.5
30 | A79G U81A A117G | 2.21
31 | U13C U46C A67G G122U | 0.95
32 | U12C G33A U81C | 1.06
33 | A2G U15A U87C | 0.05
34 | U85C G126A U134C | 0.18
35 | A6U U12C C38U A107U | 0.9
36 | U12C G40A A42G A67G U108C | 0.81
37 | U20C G55U C128U | 0.26
38 | U9A U46A U130C | 0.81
39 | A67U A92U U96A | 0.02
40 | U91A G93U U100C U115C A138G | 0.02
41 | U23G U52A U96G | 0
42 | U15A U23C U29C U81A U112A A142G | 1.23
43 | U15C G49C U130C | 2.42
44 | A22C A79C U91C | 0
45 | G7U U14C C95U | 0.08
46 | U29C U62C A77G A78G | 0.66
47 | U12G G41A C133U | 1.21
48 | A6G U96C U115C | 0

Row | Variant | self-cleavage
49 | U9A U29C U81A A94G A138G | 0.95
50 | C38U A42G U85C | 0.16
51 | G54C U81C C84A U96C U100C | 0.26
52 | C120U U132A A136G | 0.48
53 | A6U U13C G53A | 0.8
54 | G53A U62C U112A | 0.03
55 | U20C A31U A43G G125U | 1.1
56 | U15C A117C A142G | 1.87
57 | C19U U29C U102A | 0.25
58 | A50U U102A U119A | 1.53
59 | G32C A64G A69G | 0
60 | A67G U96G U132A | 0.3
61 | G27A A59G A107G C111U A121U | 0.07
62 | A42G U81C A124G | 0
63 | U73C U102C U132C | 1.84
64 | G40A A67G A77G A142G | 0.25
65 | A79U A92C A141U U143A | 0.27
66 | U12A U62C U85A A141G | 0.08
67 | U26C U85A U132C | 0.13
68 | U9A C118U A142G | 1.71
69 | U26C A78G A107G A140G | 2.16
70 | U14C A79G U85C U112C | 1.02
71 | U12C A24G U91G | 0.26
72 | U39A A117U A142G | 1.5

Row | Variant | self-cleavage
73 | U46C U73A U119C U143C | 2.26
74 | U26A A65G U73A | 0
75 | U29C G55C A69U U100C | 0.37
76 | A59G U62C A107U U132A | 0.05
77 | A42G G97A A121G A142G | 0.22
78 | U15C U102C A142G | 1.6
79 | U12A A64C U85C U100C U112C | 0
80 | C38U U52C C61U C101U | 0.01
81 | U15C A30G A42G A50U U102G U132C | 0
82 | U39G A50G A69U U73G U112C | 0
83 | U13C U73A C90U U102C G126U | 0.08
84 | G10A U115A C145U | 1.26
85 | G10A A94U U112C | 0.39
86 | U9C A31C U73A U81C U130A U134A | 1.84
87 | U52A U81C C133U U143C C146U | 0.63
88 | A64U C68A A117G A138G | 0.33
89 | G83A U115A A124G A129G | 0.48
90 | A6G G88A U108G A124U | 0.13
91 | A43G A69G U100C U143C G144A | 0
92 | U46A U52C A107C A121G | 1.84
93 | U108A U115A A124U | 2.6
94 | U15C G33U U39A U115A | 2.44
95 | U14C U52A A136G | 0.59
96 | A2G A31C A124U | 0.77

Row | Variant | self-cleavage
97 | G7A U119C A140C | 0.97
98 | U109C U115C A136G | 0.89
99 | A42U U87A A94U | 0.09
100 | U12C U13A U39C A65G U100C | 0
101 | U26C A42G A69G | 0.3
102 | U1C A77G U104C A138G | 2.3
103 | A43G U85C C90U U115C A121U U130C A140G | 0
104 | U20C A92U U100A A121U A129G | 0.36
105 | A2G G58U A59G A136U | 0.37
106 | A24G G93U U109C A138G | 0.1
107 | U12A U14C U100C A129G | 0.75
108 | U102C U109C C123U | 0.92
109 | U12C G49A A67G | 0
110 | U47C A121U A141G | 1.6
111 | A22G C71U U143A | 0.74
112 | A6G U52A U134C | 0.98
113 | U47C A77U U108C A124G | 0.54
114 | U39C C98U G125A | 0.06
115 | C16U U20C A142G | 0.87
116 | A31C U100A U132C A141G | 0.52
117 | U14A A77G U119C | 2.66
118 | A2G U62C A79G | 0
119 | U14C U23C A42G G75A | 0.63
120 | U23G G36A A69U A141G | 0.04

Row | Variant | self-cleavage
121 | A22U U26G U100C A129U | 1.09
122 | A6G U20C U96A U102C | 0.2
123 | A22G A79G A140G | 0.34
124 | U45C U109A A140G | 0.65
125 | U9C C17U A64U U81A U91C U119C A140U | 0.25
126 | U15C C123U A140U | 1.48
127 | C38A A59C U85C A141G | 0.31
128 | A42G U45C A69G A77G | 0
129 | U1C U47C U112A | 0.32
130 | A31U U52A A77G U87C U115C | 0
131 | U52C A78G G82A A124U | 0.92
132 | U1C C56A U108C | 0.05
133 | U13C A50G G75U | 0.49
134 | U26C A79U A140G | 1.47
135 | U5C U13C A42U U46C A79G | 1.53
136 | A22G A31G A57G U102C A117U | 1.31
137 | G41U A43G U52C A64U G82A C146G | 0.48
138 | A57U U109G A138G | 0
139 | U45A U85C G127A | 0.13
140 | U15C A24C C133G | 2.48
141 | U14C A57U A129U | 0.22
142 | U13C A77G A92U A121U | 0.74
143 | A67G G93C U109A U115C | 0
144 | U5A U13C A22G A67G U112C | 0

Row | Variant | self-cleavage
145 | A65C U91C A94G G114U | 0
146 | U12G U26C A94U | 0.66
147 | A57G A94G U143C | 0
148 | G35U G86A A94G U104C U109C | 0.11
149 | U91C U130C U143C | 2.21
150 | G4A C28A A107G U115C A141G | 1.67
151 | U12C U14C A78G U87A | 0.16
152 | A24G G89A U108C A142G | 0.1
153 | U9C A30U C120U A138G | 1.18
154 | A69G G89U C123U | 0.04
155 | A107U U112C U119C A136G | 2
156 | A30G G32U U46C | 1.1
157 | U15C A69G U73A | 0.3
158 | U14C A57G U91C A142G | 0.27
159 | U39C A67C A129G | 0.31
160 | G36C U45C A57U G72A A78G | 0.02
161 | U14C U62C U100C | 0.11
162 | U9C U45C U73G G127A A138G | 2.67
163 | U5C A42G A124G A138G | 0.88
164 | A64G U81C U119A | 0.09
165 | C66A A69U A79G | 0.03
166 | A31G U39A G75A U102C | 0.95
167 | U1C U14C A42G U45C U102A A121U A136U | 1.31
